Among all 52,000 compounds or so, about 4,300 (8.3%) were called active. No stated cut-off is given here; in the data, active means survival mostly below about 52% (no sharp cut-off); inactive means mostly above about 56%. The list shows a part of the results.
Test system: DeltatarO mutant
Assay: S. aureus survival, RN4220 and DeltatarO strains – OD600, teichoic acid synthesis inhibitors, primary screen (AID 463173)
Conditions: S. aureus RN4220 wild type/DeltatarO growth, OD600, 18 h, stronger effect = lower value, screened at 18.75 µg/mL (by protocol)

| SMILES | survival |
| --- | --- |
| O=C(NC1CSCC1=O)c1ccccc1 (stereo not drawn) | inactive: 69% |
| CN(C(=O)c1ccc(Br)cc1)C1CCCCC1 | inactive: 70% |
| Cc1ccc(NC(=O)CN2C(=O)CSc3ccc(S(=O)(=O)N4CCCC4)cc32)c(C)c1 | inactive: 92% |
| COc1ccc(C(=O)Oc2c(Sc3ccccc3)c(C)nn2-c2ccccc2)cc1OC | inactive: 47% |
| COc1ccccc1NC(=O)C1=C(C)Nc2nc3ccccc3n2C1c1cccc(Br)c1 (stereo not drawn) | inactive: 79% |
| COc1ccc(N2CCN(Cc3cc(=O)oc4ccc(OC)cc34)CC2)cc1 | inactive: 86% |
| CCc1ccccc1Nc1cc(C(=O)NCCc2ccccc2)c2ccccc2n1 | inactive: 95% |
| CCOc1ccc2nc(NCCNC(=O)C3CCCCC3)c(C#N)cc2c1 | inactive: 106% |
| CCCOc1ccc(Nc2cc(C)nc(C)n2)cc1 | inactive: 64% |
| O=C(Cn1c(=O)n(-c2ccc(F)cc2)c(=O)c2sc3ccccc3c21)NC1CCCCC1 | inactive: 79% |
| CCOC(=O)c1ccc2c(c1)N(Cc1cccc(C(F)(F)F)c1)C(=O)c1ccccc1S2(=O)=O | inactive: 90% |
| O=C(NCC(c1cccnc1)N1CCOCC1)C(=O)Nc1ccc(F)cc1 (stereo not drawn) | inactive: 81% |
| Cn1c(SCc2cccc(F)c2)nc2c([nH]c3ccccc32)c1=O | inactive: 120% |
| CCCn1ccc2c(OCC(=O)Nc3ccccc3OCC)cccc2c1=O | inactive: 102% |
| COc1ccc(OC)c(CCNc2nccn(-c3ccc(C)c(C)c3)c2=O)c1 | inactive: 100% |
| Cc1ccc(CNC(=O)CCC(=O)N2Cc3ccccc3Oc3ncccc32)cc1 | inactive: 71% |
| COc1ccc(Cn2c(=O)[nH]c3cc(C(=O)N4CCN(c5ccccc5)CC4)ccc3c2=O)cc1 | inactive: 135% |
| COc1cc(-c2noc(CSc3nc(-c4ccc(F)cc4)cc(=O)[nH]3)n2)cc(OC)c1OC | inactive: 69% |
| CCC1CCC(C(=O)NC(C(=O)NCCN(CC(C)C)CC(C)C)C(C)C)CC1 (stereo not drawn) | inactive: 67% |
| COc1ccccc1NC(=O)Cn1cnc2c(nc3n2CCCCC3)c1=O | inactive: 96% |

| SMILES | survival |
| --- | --- |
| CC1CCN(S(=O)(=O)c2ccc3c(c2)c(=O)c(C(=O)NCc2ccc(Cl)cc2)cn3C)CC1 | inactive: 68% |
| Cc1ccccc1CNC(=O)c1ccccc1NC(=O)c1nsc2ccccc12 | inactive: 109% |
| O=C(Nc1ccc(Cl)c(C(F)(F)F)c1)C1CCCN(S(=O)(=O)c2cccc3cccnc23)C1 (stereo not drawn) | inactive: 70% |
| CC(C)(C)c1ccc(CSc2nc3c(c(=O)[nH]2)CCCC3)cc1 | inactive: 104% |
| COc1ccccc1NC(=O)c1oc2ccccc2c1NC(=O)C(C)C | inactive: 103% |
| COCCn1c(C)cc(C=C2C(=O)NC(=O)NC2=O)c1C | inactive: 100% |
| Cc1cccc(NC(=O)CSc2nnc3scc(-c4ccccc4)n23)c1 | active: 40% |
| COc1cccc(-c2nnc(-c3cc4cc(Cl)ccc4oc3=O)o2)c1 | inactive: 140% |
| COc1ccc(Cn2ccc3nc(C)c(C(=O)Nc4ccc(F)cc4)cc3c2=O)cc1 | active: 20% |
| CCn1cc(C(=O)NCCc2ccc(Cl)cc2)c(=O)c2cc(S(=O)(=O)N3CCc4ccccc4C3)ccc21 | active: 54% |
| COCCCNC(=O)c1[nH]c2cc(OC)ccc2c1Sc1ccc(C)cc1 | inactive: 109% |
| O=C(Nc1ccc(F)cc1)N1CCN(c2ccc3nnc(-c4ccc(F)cc4)n3n2)CC1 | inactive: 102% |
| Cc1ccc(-n2nnc(-c3nsc(NC(=O)c4ccccc4C)n3)c2C)cc1Cl | inactive: 134% |
| COCCN(Cc1cc2ccc(C)c(C)c2nc1Cl)C(=O)N1CCOCC1 | inactive: 89% |
| CCOc1ccc(Nc2c(S(=O)(=O)c3ccc(Cl)cc3)cnc3ccc(OC)cc23)cc1 | inactive: 67% |
| COc1ccc(-c2c3c(=O)n(C)c(=O)n(C)c3cn2-c2cccc(N)c2)cc1 | inactive: 79% |
| COc1ccc(-c2cn3c(n2)sc2cc(C(=O)NCc4cccs4)ccc23)cc1 | active: 55% |
| CCOC(=O)CC(NC(=O)CCc1c(C)nc2c(-c3ccccc3)c(C)nn2c1C)c1ccc(C)cc1 (stereo not drawn) | inactive: 63% |
| Cc1ccc(CNC(=O)C2CCN(C(=O)c3ccc(-n4ccc5ccccc54)s3)CC2)cc1 | inactive: 84% |
| O=C(NCCOCCO)C(=O)Nc1c2c(nn1-c1ccc(F)cc1)CSC2 | inactive: 79% |

| SMILES | survival |
| --- | --- |
| Cc1ccc2cc3cc(C(=O)N4CCN(c5cccc(C(F)(F)F)c5)CC4)sc3nc2c1 | inactive: 102% |
| CN(c1ncnc2c1c(-c1ccccc1)cn2-c1ccc(F)cc1)C1CCCCC1 | inactive: 102% |
| CCC(=O)N1CCc2cc(S(=O)(=O)CCC(=O)N3CCN(c4ccccc4Cl)CC3)ccc21 | inactive: 102% |
| CCOC(=O)c1cc(-c2ccccc2)n(CCC(=O)Nc2ccc(C(F)(F)F)cc2)c1C | inactive: 131% |
| O=C(NCCn1cc(SCc2cccc(F)c2)c2ccccc21)c1cccc(C(F)(F)F)c1 | active: 35% |
| Cc1ccc(N(Cc2cccs2)C(=O)c2ccccc2)cc1 | inactive: 60% |
| Cc1c(NC(=O)Cc2ccc(F)cc2)cccc1-c1nc2cccnc2s1 | inactive: 91% |
| COCCn1c(=S)[nH]c2ccccc2c1=O | inactive: 109% |
| Cc1cccc(NC(=O)CSc2nc3ccc(NC(=O)COc4ccc(Cl)cc4)cc3s2)c1 | inactive: 71% |
| Fc1ccc(-c2nc(-c3cccs3)c(-c3cccs3)[nH]2)cc1 | inactive: 64% |
| O=C(Nc1nnc(SCc2cc(=O)c3ccccc3[nH]2)s1)c1ccccc1 | inactive: 79% |
| Cc1nn(-c2ccccc2)c2c1N(CC(=O)NCc1ccc(N(C)C)cc1)C(=O)CS2 | inactive: 83% |
| N#CC1=C(N)C(C#N)(C#N)C(c2ccco2)C2CN(Cc3ccccc3)CC=C12 (stereo not drawn) | inactive: 89% |
| CN1C(=O)C(CC(=O)NCC2CCCCC2)SC1=Nc1ccccc1 (stereo not drawn) | inactive: 90% |
| COc1ccc(-c2nc3ccc(NS(C)(=O)=O)cc3o2)cc1 | inactive: 77% |
| Clc1ccccc1Cn1cccc1C1=NC(Cc2ccccc2)CO1 (stereo not drawn) | active: 40% |
| O=C(O)c1ccc(Nc2nc(-c3ccccc3)c3cc(Br)ccc3n2)cc1 | active: 21% |
| CCCC1OC2CC3C4CCC5=CC(=O)C=CC5(C)C4C(O)CC3(C)C2(C(=O)O)O1 (stereo not drawn) | inactive: 108% |
